# Source: ChEMBL document CHEMBL4888484, “Replenishing the malaria drug discovery pipeline: Screening and hit evaluation of the MMV Hit Generation Library 1 (HGL1) against asexual blood stage Plasmodium falciparum ,using a nano luciferase reporter read-out” (2022)
# Out of some 150,000 compounds screened, about 540 (0.36%) showed an effect of 50% or more. The list shows a part of the results.
# System: Plasmodium falciparum
# Assay: Primary screen in NF54 nanoGlo assay, in single point, at 2uM, 72h; a lower Z score goes with more inhibition
# Assay type: functional, Erythrocyte
# Conditions: timepoint 72 hour
Compound,% Inhibition,Z score
CC(C)(C)c1cc(C(=O)N2CCOCC2(C)C)[nH]n1,-5%,0.72
CN(C)CCN1C(=O)C[C@](CC(=O)N(C)Cc2nc3ccc(F)cc3[nH]2)(c2ccccc2F)C1=O,-1%,0.22
CCc1cccc(C(=O)NCCc2cncn2C)n1,-7%,0.95
CCCS(=O)(=O)N1CC(=O)N(c2cccc(OC)c2)[C@](C)(C(=O)NC2CCCCCCC2)C1,-5%,0.68
Cc1ccc2[nH]c(=O)cc(C(=O)N3CCC[C@@]4(CCN(C)C4)C3)c2c1,-8%,1.22
Cc1cc(C)cc(NC(=O)C2CCN(c3cc(-c4cccc(C)c4)ncn3)CC2)c1,-1%,0.07
O=C1CCOCCN1Cc1cc(F)ccc1Cl,6%,-1.23
NC(=O)Nc1cc(Cl)cc(Cl)c1,3%,-0.31
COc1cccc([C@H]2CC(O)=Nc3nc(N)sc32)c1OCc1cccc(F)c1,-10%,1.23
COc1ccccc1CCc1nc(-c2cccnc2)n[nH]1,5%,-0.92
CC(=O)N1CC2(CCN(CCOc3ccc(C)cc3C)CC2)C[C@H]1C(=O)O,6%,-1.08
O=C1c2cc[nH]c2CC[C@@H]1N1CCN(C(c2ccccc2)c2ccccc2)CC1,-6%,0.74
COCC(=O)Nc1cc(C(=O)NCc2ccc(C)cc2)c2c(c1)ncn2Cc1ccc(F)cc1,-4%,0.41
COc1cc(C(=O)NC(C)(C)C#N)on1,-7%,1.21
COc1ccc(Cl)cc1Cc1noc(C2(C#N)CCCC2)n1,-14%,2.19
CCN(C)C(=O)c1coc(CN(Cc2ccc3c(c2)OCO3)Cc2ccccc2F)n1,-10%,1.66
CCOc1cc(CN[C@@H](CO)c2ccccc2)c(Cl)cc1OC(C)C,-1%,0.15
COc1cc2c(cc1OC)C1(CCCCC1)CN(C)C2,-3%,0.39
O=c1cc([C@H]2CCCN(Cc3ccco3)C2)nc(-c2cnccn2)[nH]1,-2%,0.34
CCc1ncc(C(=O)N(Cc2sccc2C)[C@@H](C)CC)cn1,-6%,0.83
O=C1N[C@H]2CN(C(=O)CCC3CCC3)C[C@@H]2OCc2cn(nn2)CCOc2cccnc21,-9%,1.1

Compound,% Inhibition,Z score
O=C(CNc1cc(S(=O)(=O)N2CCOCC2)ccc1NC[C@H]1CCCO1)Nc1ccccc1,15%,-1.74
O=C(c1ccc(F)cc1)N(CC(=O)N1CCc2sccc2C1COc1ccccc1)CC1CCCO1 (centres undefined),2%,-0.36
CC1(C)CC(NC(=O)c2cc(C3CC3)nc3ccccc23)CC(C)(C)N1,11%,-1.22
N[C@H]1CCO[C@@H]1c1cncc(-c2ccccc2)c1,-7%,0.94
Cc1nc(-c2ccccc2)nn1[C@H]1CCN(S(=O)(=O)c2cccnc2)C1,-14%,1.88
CCCCN(CCC(=O)NCCOC)C(=O)c1cc(C)oc1C,7%,-0.85
Cc1ccccc1[C@@H](NC(=O)NCC1(O)CCN(C)CC1)c1ccncc1,7%,-1.44
CCN(Cc1noc(C)n1)C(=O)c1cccc(-c2nc(C)cnc2C)c1,-5%,0.98
CC[C@H](C)N1CCN(C(=O)C2CCN(c3ccncc3C)CC2)CC1,3%,-0.44
CC(C)c1nccn1CC(=O)N1CCC(=O)N2CCC[C@@H]21,0%,0.02
CC(C)(C)NC(=O)[C@@H]1C[C@@H]2CCCC[C@@H]2CN1Cc1ncccc1C(=O)O,7%,-1.32
O=C(Nc1ccccc1)N1C(=O)C2(OCCO2)c2ccccc21,8%,-0.97
C[C@H]1CN(C)C[C@@H](C(=O)N2CCn3c(cnc3C(F)(F)F)C2)O1,7%,-0.95
O=C(NCC1Cc2c(ccc3cc(-c4cccnc4)ccc23)O1)C1CCCO1 (centres undefined),-22%,3.09
Cc1nc[nH]c1CN1CCc2[nH]cnc2[C@H]1c1ccc(Cl)c(Cl)c1,2%,-0.19
CC(C)c1cnc(COc2ccc3c(c2)OCO3)o1,-9%,1.05
CC[C@@H](C(=O)Nc1cc(OC)ccc1OC)n1c(C(=O)c2cccc(F)c2)nc2ccccc21,-12%,1.54
COc1ccc(-c2nnc(N3CCN(C)C[C@@H]3C)s2)cc1,-1%,0.21
COCCN(CC(=O)N1N=C(c2cccn2C)C[C@H]1c1ccccc1)C(=O)c1ccccc1F,-1%,0.08
CC1CCC(CNC(=O)OC(C)(C)C)N(C(=O)c2cnccn2)C1C (centres undefined),-4%,0.68
COc1ccc(OCc2cc(C(=O)N3[C@H](C)CC[C@H]3C)n[nH]2)c(Cl)c1,9%,-1.61

Compound,% Inhibition,Z score
CN[C@@H](C)C(=O)NCCCn1c(C)cccc1=O,-13%,2.33
O=C(CN1C(=O)c2cc(Cl)c(Cl)cc2C1=O)N1CCCCCC1,-18%,2
CC(C)(Oc1cc2c(cc1-c1cccnc1)CCO2)C(=O)O,-11%,2.04
C[C@@H](C1CC1)N(CCC#N)Cc1ccncc1,-4%,0.37
COc1cc(C(=O)NCCc2ccc(F)cc2)ccc1OCC(=O)N1CCOCC1,-18%,1.71
O=S(=O)(N[C@H]1CCOc2ccccc21)N1CCOCC1,2%,-0.23
CC(CC(O)c1ccco1)NC(=O)NCc1cnc(N(C)C)n1C (centres undefined),-8%,1.02
COCC1(C(=O)Nc2ccn3ccnc3c2)CCC1,-18%,3.82
CC(C)N1CC[C@H](N2CCN(c3cccc(C(F)(F)F)c3)CC2)[C@H](CCC(=O)N2CCCCCC2)C1,0%,-0.03
Cc1c(Cl)cccc1S(=O)(=O)N1CC[C@H](Oc2ncc(Cl)cn2)C1,2%,-0.3
O=C(O)COc1cccc(CNC(=O)[C@@H]2CCCc3sccc32)c1,-15%,1.84
COc1ccc2c(c1)[C@@H](n1cc(-c3nccn3C)nn1)CC(C)(C)O2,-8%,1.38
Cc1ccc2c(c1)CC[C@@H](C(=O)Nc1ccnn1C1CCC1)O2,2%,-0.25
CCc1nc2nn3c(=O)c(C(C)(C)C)n[nH]c3c2c(=O)[nH]1,-27%,3.16
Cc1cccc(NC(=O)CN2CCC(COCc3ccccc3)CC2)c1C,-14%,1.56
O=C(Nc1cc2ccccc2cc1NC(=O)c1ccc2c(c1)OCCO2)c1ccc2c(c1)OCCO2,2%,-0.29
N#Cc1oc2ccccc2c1NS(=O)(=O)c1ccccc1,7%,-1.08
Cc1nc(C(C)C)sc1C(=O)N(C)Cc1ccc2c(c1)OCO2,8%,-1.56
Cc1ccc2[nH]c(=O)cc(C(=O)N3CCC(n4cc(C(C)(C)C)nn4)CC3)c2c1,-11%,2.07
O=C(Cn1cnc2ccccc21)NCc1cncc(-c2ccsc2)c1,-8%,1.21
COc1cc(F)c(CN2CCC[C@@H]2CN2CCCC2)cc1OC,18%,-2.33

Compound,% Inhibition,Z score
O=C(O)[C@H]1CCCN(c2nc(-c3ccsc3)nc3ccccc23)C1,-12%,2.15
COCCO[C@H]1CCN(c2ccnc(C#N)c2)C1,-7%,0.97
O=C(c1cnc(COc2ccc(F)cc2)nc1O)N1CCOCC1,-1%,0.22
CS(=O)(=O)N1CCO[C@@H](CNC(=O)c2cnn(Cc3ccccc3)c2)C1,-7%,1.3
CC(=O)Nc1c(S(=O)(=O)c2ccc(C)cc2)c(C)c(C)n1CC(C)C,-4%,0.55
CC(=O)N1CCc2cc(-c3ccc(C(=O)NCC[C@H](C)N4CCCC4)cc3)ccc21,42%,-4.76
CC1=NS(=O)(=O)N(C)C=C1C(=O)OCCOc1ccccc1,-6%,1.11
CC(C)(C)Oc1ccccc1NCc1cnc(N2CCOCC2)nc1,-19%,2.73
FC(F)c1cc(NCCc2cc[nH]n2)n2ncnc2n1,-1%,0.19
CC[C@H](C)[C@@H]1NC(=O)N(C2CC(C)(c3ccccc3)C2)C1=O (some centres undefined),-17%,2.64
COc1cccc(CNC(=O)[C@@H](C)C2CCN(C(=O)c3cc4ccccc4[nH]3)CC2)c1,0%,0.09
CC(C)CCN1C[C@]23C=C[C@H](O2)C(C(=O)N2CCCN(C)CC2)C3C1=O (some centres undefined),-3%,0.57
CCOc1ccc(NC(=O)c2c(NCc3sccc3C)sc3c2CCCCC3)cc1,-4%,0.71
O=S(=O)(Nc1ccc(Br)cn1)c1cccnc1,8%,-0.89
Cc1cc(NC(=O)NCCN2CCO[C@@H](C)C2)cn2ccnc12,-16%,2.08
C[C@H](NC(=O)NC1CCOCC12CCCC2)c1cncc(F)c1 (some centres undefined),-11%,2.15
CCc1c(C)nn(CC(=O)N2C[C@H](C3CC3)[C@@H](N(C)C)C2)c1C,-11%,1.44
COc1cccc(C)c1C(=O)N[C@@H]1COCC[C@@H]1Oc1ccccc1,-7%,1.29
CNc1nc([C@H]2CCOC2)cc(N2CCN(c3ccccc3F)CC2)n1,-9%,1.68
